The results in this text go back to patent US8268795B2 (priority 2005, dated 2012).

Structures can show the parent of a compound that is named as a salt.

In the assay the test system is small diameter cerebral arteries constricted by 60 mmol/L K+. Kind of assay: tissue or blood. Type of assay: cell-based, rabbit.

Broadly, the IC50 is the concentration that gives 50% inhibition. `COc1ccc([C@@H]2Sc3ccccc3N(CCN(C)C)C(=O)[C@@H]2OC(C)=O)cc1` (relative stereo) [diltiazem, benzothiazepin-4(5H)-one, 3-(acetyloxy)-5-[2-(dimethylamino)ethyl]-2,3-dihydro-2-(4-methoxyphenyl)-,(+)-cis-,monohydrochloride]: the “K+-induced constrictions that could not be reversed” value is reported as “approximately 20%” and the “reversal of constrictions induced by 60 mmol/L K+” value is recorded as “could not fully reverse”. The IC50 (Oryctolagus cuniculus, 72 h, read-out: IC50 value of diltiazem for vasodilation) is about 1 µM.
